In PubChem BioAssay AID488969 (Vanderbilt High Throughput Screening Facility, 2010) one finds z-score data, which are given here for 69 compounds.

Molecules are shown by their SMILES. The full ranking holds about 110,000 compounds; the median of “z-score” is about -0.1, and the highest 2% start at about 2. This is one part of the list. Calls of active or inactive are those of the source.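 Rule for the calls: active = z-score in the third read window above 3 or below -3; inactive = the rest.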

For the assay, the target named is Metabotropic glutamate receptor 8 (Rattus norvegicus) (UniProt P70579). Kind of assay: rat mGluR8 modulators via GIRK flux, primary screen, cell-based, thallium flux, HTS (AID 488969). The note with it: HEK293 rat mGluR8, GIRK (G protein-gated inwardly rectifying potassium channel) thallium flux, FluoZin2; at 10 µM; stronger effect = higher value; submaximal glutamate (EC20) added with thallium.
Chain of UniProt P70579 (P70579 whole entry, looked up): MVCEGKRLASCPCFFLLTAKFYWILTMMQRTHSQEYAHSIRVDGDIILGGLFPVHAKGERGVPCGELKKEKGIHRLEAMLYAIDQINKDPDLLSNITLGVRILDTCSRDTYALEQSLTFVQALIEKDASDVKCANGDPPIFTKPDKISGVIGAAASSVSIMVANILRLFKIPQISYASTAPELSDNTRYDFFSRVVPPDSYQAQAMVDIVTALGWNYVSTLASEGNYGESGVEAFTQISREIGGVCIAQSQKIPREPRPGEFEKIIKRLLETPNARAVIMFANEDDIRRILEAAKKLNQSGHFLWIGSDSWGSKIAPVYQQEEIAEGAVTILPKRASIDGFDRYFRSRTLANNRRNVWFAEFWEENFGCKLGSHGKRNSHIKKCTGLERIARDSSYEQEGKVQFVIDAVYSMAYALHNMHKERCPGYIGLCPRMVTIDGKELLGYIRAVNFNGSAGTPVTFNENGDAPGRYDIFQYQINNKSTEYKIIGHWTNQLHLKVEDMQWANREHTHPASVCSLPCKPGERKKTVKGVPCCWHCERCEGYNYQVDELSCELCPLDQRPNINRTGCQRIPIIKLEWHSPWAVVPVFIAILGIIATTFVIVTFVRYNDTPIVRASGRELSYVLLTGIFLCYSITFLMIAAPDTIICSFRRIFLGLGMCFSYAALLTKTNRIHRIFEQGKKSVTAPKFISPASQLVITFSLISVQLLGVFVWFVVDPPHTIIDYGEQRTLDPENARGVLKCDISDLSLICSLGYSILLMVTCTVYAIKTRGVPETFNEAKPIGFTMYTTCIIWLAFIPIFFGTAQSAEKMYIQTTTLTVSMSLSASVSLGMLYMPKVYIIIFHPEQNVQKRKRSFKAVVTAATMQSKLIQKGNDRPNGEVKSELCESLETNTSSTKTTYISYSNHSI
For the compound `CCOC(=O)CSc1nn(C)c(=S)s1`, the z-score stood at 0.114.

The compound `Cn1c(SCC(=O)NC2CCCCC2)nnc1-c1cccc(N)c1` yielded a z-score of 0.142.

Turning to `O=C(NC1CCS(=O)(=O)C1)/C(=C\c1ccccc1)NC(=O)c1ccccc1` (centres undefined), the z-score is -0.336.

For `CCCN1C(=O)C(Cc2nc3ccccc3c(=O)n2C)c2ccccc21` (centres undefined), the z-score was found to be 0.507.

`CCN(CC)S(=O)(=O)c1cccc(-c2nnc(-c3ccc(C)cc3)o2)c1` showed a z-score of -0.118.

`COc1ccc(N2C(=O)CC(n3c(CCCCO)nc4ccccc43)C2=O)cc1` (centres undefined) showed a z-score of 0.0715.

Turning to `CO/N=C/c1ccc(Sc2ccc(C)cc2)c([N+](=O)[O-])c1`, the z-score was -0.349.

As to `Cc1[nH]c(=O)[nH]c(=O)c1S(=O)(=O)N1CCN(c2cccc(Cl)c2)CC1`, the z-score came out at 0.557.

`CCN1C=C(Cc2ccc(F)cc2)C2=C(C1)C(c1ccc(F)cc1)C(C#N)=C(N)O2` (centres undefined): the z-score was -0.0952.

`CNC(=S)N1N=C(c2ccccc2)CC1c1ccc(OC)c(OC)c1` (centres undefined) returned a z-score of -0.0108.

Take `O=C(CS(=O)(=O)c1cn(Cc2ccccc2Cl)c2ccccc12)N1CCOCC1`: the z-score was -0.195.

`CCCCC1CCC(c2ccc(C(N)=O)cc2)CC1` (centres undefined) gave a z-score of 0.227.

In turn, `Cc1ccc(NS(=O)(=O)c2cc(C(=O)N3CCN(C)CC3)ccc2C)cc1` showed a z-score of 0.0202.

In turn, `Cc1c(/C=N/NC(=O)c2ccc(O)cc2)c2ccccn2c1C(=O)c1ccc(F)cc1` showed a z-score of -0.233.

Compound `O=C(NCCOc1ccccc1)C(c1ccccc1)c1ccccc1` yielded a z-score of -2.15.

For the compound `CC1=NN(C(=O)Cc2ccc(C)cc2)C(O)(c2cccnc2)C1` (centres undefined), the z-score came to 0.145.

For `O=C(CCS(=O)(=O)c1ccc(Cl)cc1)N1CCN(S(=O)(=O)c2cccs2)CC1`, the z-score was determined as 0.373.

In the case of `O=C(NCCSCc1ccco1)Nc1ccc(Cl)cc1`, the z-score is 0.159.

`CCCc1nc(SCC(=O)NNC(=O)C2CCCCC2)c2ccccc2n1` had a z-score of -0.121.

The compound `CC(C)Oc1ccc(N2CC(C(=O)OCC(=O)NCc3ccccc3)CC2=O)cc1` (centres undefined) showed a z-score of -0.0828.

For the compound `O=C1C(c2ccc(F)cc2)N(Cc2ccc3c(c2)OCO3)C(=O)CN1C1CCCC1` (centres undefined), the z-score is -0.315.

In the case of `COc1ccc(CNC(=O)CN(C2CCCCC2)S(C)(=O)=O)cc1`, the z-score is 0.463.

`O=C(CCC(=O)N1CCN(S(=O)(=O)c2ccc(Cl)cc2)CC1)Nc1ccc2ccccc2c1` returned a z-score of -0.149.

Turning to `Cn1nc(C(F)(F)F)c(C#N)c1N1CCN(c2ccccc2)CC1`, the z-score was -1.42.

Regarding `COc1ccccc1-n1c(C)nnc1SCC(=O)Nc1cc(C)cc(C)c1`, the z-score was 0.0631.

Take `CN(CC(=O)NCCN1CCN(c2ccccc2)CC1)S(=O)(=O)c1ccc2c(c1)CCC(=O)N2`: the z-score worked out at 0.291.

On to `CC1CCN(C(=O)c2ccc(S(=O)(=O)N(C)C)cc2)C(C)C1` (centres undefined), for which the z-score was -0.425.

Turning to `CCN(CC)CCN=CC1=C(O)CNC1=O`, the z-score is -0.881.

As for `Cc1ccc(C(=O)NC(C)(COc2nonc2C)COc2nonc2C)cc1`, the z-score was -0.0583.

In turn, `Cn1cc(Cl)c(C(=O)N2CCN(c3ncccn3)CC2)n1` showed a z-score of 0.139.

The compound `Cc1ccc(C(=O)NC(NC(=S)Nc2ccc(S(N)(=O)=O)cc2)C(Cl)(Cl)Cl)cc1` (centres undefined) yielded a z-score of -0.106.

In the case of `O=C(CSc1nc2ccccc2s1)Nc1ccc2c(c1)oc1ccccc12`, the z-score was -0.268.

Take `COCCn1c(SCC(=O)NCc2ccco2)nc2cccnc21`: the z-score worked out at 0.0661.

In turn, `CC(=O)C(C)Oc1ccc2c3c(c(=O)oc2c1)CCCCC3` (centres undefined) had a z-score of -0.267.

In turn, `CCS(=O)(=O)Nc1cc(-c2nc3cccnc3s2)ccc1C` came in with a z-score of -0.386.

Consider `CCN(CC)c1cc(C)c2cc(NC(=O)c3ccc(Br)o3)ccc2n1`, for which the z-score is -0.522.

Turning to `CC1=NOC(=O)/C1=C\c1ccc(-c2cc(Cl)ccc2Cl)o1`, the z-score turned out to be 0.406.

The compound `CS(=O)(=O)N1CCC(C(=O)Nc2ccc(Cl)c(C(F)(F)F)c2)CC1` gave a z-score of -0.153.

Turning to `COc1cccc(N2CCN(c3c4c(nc5ncnn35)CCC4)CC2)c1`, the z-score was active: 5.19.

For the compound `CCN(CC)C(=O)C(=O)c1cccn1-c1cccc(Cl)c1C#N`, the z-score stood at 0.32.

In turn, `CCOC(=O)NC(=O)CSc1ccccn1` showed a z-score of -1.84.

`CC(C)(C)c1cn(-c2ccc(F)cc2)c(=S)[nH]1` displayed a z-score of 0.329.

`O=C(c1cc2ccccc2o1)N1CCCCCC1`: the z-score was -0.185.

As for `O=C(CSc1ccccc1)Nc1cccc(NC(=O)c2ccco2)c1`, the z-score was -0.237.

`CC(=O)N1c2ccc(Cl)cc2C2C=CCC2C1c1cccc2ccccc12` (centres undefined) showed a z-score of -0.185.

For `CCOC(=O)c1[nH]c(C)c(C(=O)Nc2ccc(Cl)cc2)c1C`, the z-score was -0.232.

Compound `COc1cc(CNCCc2ccc(F)cc2)ccc1OCc1ccc(Cl)nc1` yielded a z-score of 0.172.

Consider `O=C(N/N=C/c1ccco1)c1cccc(N2CCCC2=O)c1`, for which the z-score was 0.0141.

In the case of `O=C(CSc1ccsc1[N+](=O)[O-])NCCc1ccc(Cl)cc1`, the z-score was 0.0211.

Compound `O=C(NCc1ccc2c(c1)OCO2)C1CCCN(S(=O)(=O)c2cccc3cccnc23)C1` (centres undefined) came in with a z-score of -0.38.

`COCCn1c(SCC(=O)Nc2ccc(S(=O)(=O)N(C)C)cc2)nc2ccccc21`: the z-score is -0.813.

The compound `O=C(COC(=O)/C=C/c1nc2ccccc2s1)Nc1cccc2ccccc12` came in with a z-score of -0.127.

Consider `COc1ccc(NC(=O)CSc2c(C)n[nH]c2C)cc1`, for which the z-score amounted to 0.316.

Take `COc1c(Cl)cc(Cl)cc1CNCCNCCO`: the z-score was found to be 0.598.

With `Cc1nonc1NCn1nnc2ccccc21`, the z-score was -0.0556.

The compound `O=C(O)CNC(=S)N(Cc1cccs1)C1CCCCC1` yielded a z-score of -0.0527.

Compound `Cc1cc(SC(C)C(=O)NCC(=O)Nc2ccc(F)c(F)c2F)nc2ccccc12` (centres undefined) yielded a z-score of -0.101.

For `O=C(NCc1ccccc1)C(c1cccs1)N(Cc1cccs1)C(=O)c1cnccn1` (centres undefined), the z-score is -0.142.

Regarding `Cc1ccc(Cn2c(SCc3cccnc3)nc3c2c(=O)n(C)c(=O)n3C)cc1`, the z-score is -0.0321.

In the case of `CN(c1ccccc1)S(=O)(=O)c1ccc(NC(=S)NC(=O)C2CC2)cc1`, the z-score is -0.123.

`O=C(/C=C\c1cn(-c2ccccc2)nc1-c1ccccc1)Nc1nccs1`: the z-score was -0.18.

On to `O=C(Nc1ccc2c(c1)ncn2C1CCCCC1)c1ccco1`, for which the z-score was determined as 0.458.

Compound `COc1cccc(N(C(=O)CS(=O)CC(=O)Nc2ccc(F)cc2)C(C(=O)NC2CCCCC2)c2cccs2)c1` (centres undefined) gave a z-score of -0.0149.

`c1cnn(-c2nc(N3CCOCC3)nc(N3CCOCC3)n2)c1`: the z-score worked out at 0.839.

`COc1nc(OC)nc(N2CCC(C(=O)NC3CCCCCC3)CC2)n1` showed a z-score of 0.175.

Take `COc1ccc(OC)c(C(=O)CSc2nnc(-c3cccnc3)n2C)c1`: the z-score is -0.347.

With `O=C(CCc1ccc(Oc2cc([N+](=O)[O-])cc([N+](=O)[O-])c2)cc1)Nc1cccc(Cl)c1`, the z-score is 0.199.

For `CC1=CC(C)(C)N2C(=O)C3(N=C(N)NC(Nc4ccccc4)=N3)c3cc(C)cc1c32` (centres undefined), the z-score came out at 0.64.

`c1c2c(cc3sc(N4CCCCC4)nc13)OCO2` yielded a z-score of 0.198.
